# Measured values published in paper PMC4336329 (PLoS ONE, 2015).
# Among all 310,000 compounds or so, about 14,000 (4.5%) showed an effect of 50% or more. The effect is printed as a negative number. Some of the results follow.
# Target: human ether-à-go-go-related gene (hERG) potassium channel (human, UniProt Q12809)
# Experiment: primary screen, population patch clamp on CHO cells stably expressing hERG
# 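Further: peak tail current of the secondary pulse compared with the same well before compound.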
# Chain of human ether-à-go-go-related gene (hERG) potassium channel (Q12809 whole entry, looked up): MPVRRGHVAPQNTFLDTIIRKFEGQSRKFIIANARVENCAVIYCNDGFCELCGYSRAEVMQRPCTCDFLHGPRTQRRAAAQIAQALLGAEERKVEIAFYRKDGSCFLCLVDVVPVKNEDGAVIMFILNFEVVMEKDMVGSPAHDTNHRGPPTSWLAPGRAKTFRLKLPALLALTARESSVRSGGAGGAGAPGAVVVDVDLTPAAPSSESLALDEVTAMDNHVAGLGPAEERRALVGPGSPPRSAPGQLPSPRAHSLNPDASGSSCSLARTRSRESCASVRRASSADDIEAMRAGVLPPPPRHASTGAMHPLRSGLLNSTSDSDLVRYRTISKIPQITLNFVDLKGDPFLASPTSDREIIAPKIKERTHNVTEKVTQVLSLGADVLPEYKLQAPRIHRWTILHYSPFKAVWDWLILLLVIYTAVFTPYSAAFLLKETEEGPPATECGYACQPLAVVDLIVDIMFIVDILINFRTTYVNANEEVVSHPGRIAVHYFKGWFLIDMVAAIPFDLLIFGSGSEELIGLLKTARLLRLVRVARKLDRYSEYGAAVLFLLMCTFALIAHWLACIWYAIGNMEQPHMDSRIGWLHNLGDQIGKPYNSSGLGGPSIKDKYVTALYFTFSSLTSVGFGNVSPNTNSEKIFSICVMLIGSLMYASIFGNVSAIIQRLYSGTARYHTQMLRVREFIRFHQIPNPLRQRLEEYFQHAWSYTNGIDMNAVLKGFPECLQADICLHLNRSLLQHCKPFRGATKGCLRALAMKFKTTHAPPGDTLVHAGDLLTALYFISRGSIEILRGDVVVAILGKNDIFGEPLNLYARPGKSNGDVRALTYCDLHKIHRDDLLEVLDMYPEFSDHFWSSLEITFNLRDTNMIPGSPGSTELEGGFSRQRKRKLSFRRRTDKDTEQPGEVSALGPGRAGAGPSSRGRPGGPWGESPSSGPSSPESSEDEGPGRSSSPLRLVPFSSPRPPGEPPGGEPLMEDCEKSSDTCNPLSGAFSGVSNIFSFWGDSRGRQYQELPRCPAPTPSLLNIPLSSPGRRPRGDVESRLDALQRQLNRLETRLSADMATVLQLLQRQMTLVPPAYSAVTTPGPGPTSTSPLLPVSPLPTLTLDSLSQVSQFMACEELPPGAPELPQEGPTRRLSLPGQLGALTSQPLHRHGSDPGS
row,Structure (SMILES),"hERG current change (%, negative = inhibition) at 10uM"
1,Cc1cc(C)c(-n2[nH]nnc2=S)c(C)c1,21.7%
2,CC(NC(=O)Nc1ccc(F)cc1F)c1ccncc1 (stereo not shown),9.6%
3,COc1ccc(C(=O)NCCS(=O)(=O)N(C)C2CCCCC2)cc1,-19.7%
4,Cc1nc(CN2CCN(C(=O)c3ccc(C(C)(C)C)cc3)CC2)cs1.Cl,-3.25%
5,CC(NS(=O)(=O)c1ccc(N)cc1)C1CC2CCC1C2 (stereo not shown),-2.43%
6,COc1ccccc1N(C(=O)CN1C(=O)c2ccccc2S1(=O)=O)C(C(=O)NCC1CCCO1)c1ccc(F)cc1 (stereo not shown),-5.06%
7,NS(=O)(=O)c1ccc(CNC(=O)Cc2c(F)cccc2Cl)cc1,22.2%
8,CCCc1nc(SCC(=O)N2CCc3ccccc3C2)c2ccccc2n1,-29.1%
9,COCCCNC(=O)Nc1ccc2c(c1)N(C)C(=O)CS2,4.45%
10,CCOC(=O)Cc1csc(NS(=O)(=O)c2ccc(OC)cc2)n1,8.9%
11,O=c1[nH]c(Cl)ccc1CN1CCOCC1,14.5%
12,CCNc1nc(=S)nc(NCc2ccccc2)[nH]1,14.5%
13,CCc1nnc2sc(-c3ccc(NC(=O)c4ccco4)cc3)nn12,0.717%
14,O=C(O)c1ccc2c3c(cccc13)C(=O)N(OS(=O)(=O)c1ccccc1)C2=O,12.6%
15,CCc1ccc2c(COC(=O)c3n[nH]c4ccccc34)cc(=O)oc2c1,-1.27%
16,CCN(CC)C(=O)COc1ccc(S(=O)(=O)N2CCCC2)cc1,12.3%
17,Cn1ncc([N+](=O)[O-])c1C(=O)Nc1ccc(-c2nc3ccccc3[nH]2)cc1,-25%
18,Cc1c(NS(=O)(=O)c2cccs2)cccc1-c1nc2cccnc2s1,2.89%
19,COc1cc(C=O)c(Br)cc1OCC(=O)NCCc1ccccc1,31.7%
20,Cc1cccc(NS(=O)(=O)c2nnc(NC(=O)c3ccc(C)c(C)c3)s2)c1,1.76%
21,CC(=C\C(=O)O)/C(=C/c1ccco1)C(=O)O,10.8%
22,Cc1ccc(C(C)n2cc(C(=O)NCc3ccccn3)nn2)cc1 (stereo not shown),7.89%
23,NC(=O)CN(c1ccc([N+](=O)[O-])cc1)S(=O)(=O)c1ccccc1,-22.1%

row,Structure (SMILES),"hERG current change (%, negative = inhibition) at 10uM"
1,CC1CCCCN1CCNC(=O)C1CC(=O)N(c2ccc(F)c(Cl)c2)C1 (stereo not shown),-56.9%
2,CC1(C)Cc2c(sc3nc(C4CCCCC4)n(N)c(=O)c23)CO1,18.2%
3,CC(C)C1Cc2nc(Cl)c(C#N)cc2CO1 (stereo not shown),4.05%
4,CC(=O)N(CN1C(=O)CCC1=O)c1ccc(Cl)c(Cl)c1,15.6%
5,COc1ccc(CNc2nc3nc(C)c(Cl)c(=O)n3[nH]2)cc1OC,6.38%
6,Cc1cn(C2C=CC(CO)O2)c(=O)[nH]c1=O (stereo not shown),4.79%
7,COC(=O)Cc1c(C)c2ccc(OC(C)C)cc2oc1=O,-13.7%
8,CCCCN(C(=O)CNC(=O)c1ccco1)C(C(=O)NC1CCCCC1)c1cccnc1 (stereo not shown),-3.24%
9,Cc1cc(C)c2nc(NC(=O)c3ccco3)sc2c1,3.16%
10,CN1CCC(NC(=O)Nc2ccc(Br)cc2)CC1,-19.7%
11,Cc1[nH]c(=O)[nH]c(=S)c1C(=O)Nc1ccc(Cl)c(Cl)c1,22.1%
12,CCn1c(SCC(=O)O)nnc1C1CCCCC1,-5.26%
13,O=C(Nc1c(S(=O)(=O)c2ccccc2)csc1Br)c1ccccc1Cl,-0.642%
14,COC(=O)[C@@H]1C[C@@H]2CC[C@@H](O)C[C@@H]2N1Cc1ccc(C(F)(F)F)cc1,-1.34%
15,Cn1c(CSCc2ccc(F)cc2)nnc1SCC(=O)Nc1cccc(C(=O)O)c1,9.71%
16,COCCNC(=O)CCn1nc(-c2ccc(Cl)cc2)ccc1=O,-30.2%
17,CC1CN(S(=O)(=O)c2cccc(C(=O)OC/C(O)=C(\C#N)c3nc4ccccc4[nH]3)c2)CC(C)O1 (stereo not shown),-11.4%
18,COC(=O)C1CCC(C)(C(=O)Nc2ccccc2)C1(C)C (stereo not shown),9.52%
19,O=C(NCC1CCCO1)C1CCN(C2CCN(C3CCCCCC3)CC2)CC1 (stereo not shown),28.4%
20,COC(=O)CCC(=O)OC1(C)C(=O)C=C2C=C(C3CC3)N(Cc3ccco3)C=C2C1=O (stereo not shown),1.83%
21,Cc1cc[n+](-c2nc([O-])sc2/C=N/Nc2ccc([N+](=O)[O-])cc2)cc1,12.3%
22,CSc1nnc2c(n1)c(C)nn2-c1cccc(C)c1,-8.1%
23,CCOc1ccc(NC(=O)COC(=O)c2ccc3c(c2)OCO3)cc1,11.2%

row,Structure (SMILES),"hERG current change (%, negative = inhibition) at 10uM"
1,Cc1[nH]oc(=O)c1N=Nc1ccccc1,3.36%
2,Cc1ccccc1CNC(=O)C1CCC(=O)N(Cc2cccc(F)c2)C1 (stereo not shown),-8.38%
3,NC(=O)c1nsc(C(=O)N(CC(=O)NC2CCCCC2)c2cccc(F)c2)c1N,0.907%
4,Cc1cc(C)n(-c2nncn2NC(=O)c2ccc(Cl)cc2O)n1,4.97%
5,COCCn1cnnc1SCC(=O)Nc1ccc(N2CCCCC2)cc1,6.16%
6,Cc1ccc(CSc2nnc(-c3ccco3)n2N)cc1,-0.665%
7,CCOc1ccc(S(=O)(=O)Nc2cccc(C(=O)N3CCN(C(C)=O)CC3)c2)cc1,-14.9%
8,CCc1ccc(S(=O)(=O)N2CCN(C(=O)C3CCN(C(C)=O)CC3)CC2)cc1,2.63%
9,Cc1ccc(NC(=O)c2cccs2)cc1NC(=O)c1ccc(F)cc1,0.179%
10,O=C1CC(=O)N(c2ccc3c(c2)OCO3)C(=O)N1,4.28%
11,CCCS(=O)(=O)N1CCCC(C(=O)NCCN2CCOCC2)C1 (stereo not shown),13.7%
12,O=[N+]([O-])C(/C=C(\Cl)[N+](=O)[O-])=C(N1CCCCC1)N1CCCCC1,3.43%
13,COc1cccc(OCCOc2ccc(/C=C3\C(=N)N4N=C(S(C)(=O)=O)SC4=NC3=O)cc2OC)c1,23.4%
14,CC(C)COn1c(=S)[nH]c2ccccc2c1=O,7.07%
15,Cc1ccc(C)n1-c1ccc(C(=O)O)cc1,22.5%
16,CCN(CC)CCN(C(=O)C1=COCCO1)c1nc2c(OC)ccc(OC)c2s1.Cl,-78.3%
17,CCC(C(=O)NCCc1ccco1)n1nc(C)c2c(C)n(-c3ccccc3)nc2c1=O (stereo not shown),-0.308%
18,COCC(=O)N(Cc1cc2cc(OC)ccc2[nH]c1=O)c1ccccc1OC,-8.1%
19,COC(=O)CCCC(=O)N1CCOCCN(C(=O)CCCC(=O)OC)CCOCC1,3.12%
20,CCn1ncc([N+](=O)[O-])c1C(=O)Nc1cc(C)on1,-0.655%
21,CCCCN(C(=O)c1cc(-c2ccco2)nc2ccccc12)c1c(N)n(CCC)c(=O)[nH]c1=O,10.1%
22,O=C(Nn1cnnc1)c1cc(Br)ccc1Cl,14.5%
23,Cc1cccc(OCC(=O)Nc2nnc(-c3ccco3)s2)c1,-1.94%

row,Structure (SMILES),"hERG current change (%, negative = inhibition) at 10uM"
1,O=C(NCCCc1ccccc1)c1ccc(Br)o1,-37.8%
2,N#Cc1c(N)n(CCOC(=O)c2cccc(Br)c2)c2nc3ccccc3nc12,6.57%
3,OC(COc1ccc2cc(Br)ccc2c1)CN1CCCC1 (stereo not shown),-70.2%
4,NC(=O)c1ccccc1NC(=O)Nc1ccccc1Cl,11.8%
5,CCN1CCN(S(=O)(=O)c2cccc([N+](=O)[O-])c2)CC1,20.2%
6,[O-]/C(=C(\C(=S)NCc1ccccc1)[n+]1ccccc1)c1ccc(Cl)s1,-16.1%
7,CC(=O)Nc1nnc(-c2c(-c3c(Cl)cccc3Cl)noc2C)o1,-4.34%
8,Cc1ccc2cc(C=O)c(N(C)C)nc2c1,7.52%
9,CNC(=S)Nc1ccc2nc(C)oc2c1,21.3%
10,CC(CNC(=O)c1ccc2c(c1)OCO2)c1ccc([N+](=O)[O-])cc1 (stereo not shown),17.2%
11,Cc1ccn2c(CNC(C)c3cn(C)nc3C)c(C(=O)N3CCCCCC3)nc2c1 (stereo not shown),0.193%
12,Cn1c(Cn2nnc3ccccc32)nnc1SCC(=O)N1CCc2ccccc21,-21.9%
13,Cc1nc(-c2ccc(Cl)cc2)sc1C1(C)CC(c2ccc(OC(F)(F)F)cc2)=NO1 (stereo not shown),10.3%
14,COc1ccc(-c2nc(C=O)cs2)cc1,-4.78%
15,CCC(C(=O)O)n1nc(-c2ccccc2)c2cc(Cl)ccc21 (stereo not shown),13.8%
16,O=C(NCCN1CCOCC1)c1cc2cc(Br)ccc2oc1=O,-9.42%
17,CCOc1ccc(-n2c(SCc3ccc([N+](=O)[O-])cc3)nnc2-c2ccc(OC)cc2)cc1,2.54%
18,COc1ccc(Nc2nc(C)nc3sc4c(c23)CCC4)cc1O,19.7%
19,Cc1[nH]c2ccc(C(=O)NCCCN(C)C3CCCCC3)cc2c1C,-22.6%
20,CCCCCc1ccc(-c2cn(CN3C(=O)c4ccccc4C3=O)nn2)cc1,-6.83%
21,O=C(Nc1ccc2c(c1)OC1(CCCC1)O2)C1CC1,3.79%
22,Cc1ccc(-c2nnn(CCC(=O)Nc3ccc4c(c3)OCO4)n2)cc1,-0.895%
